The campaign covered roughly 360,000 compounds. About 7,500 (2.1%) were called active. The shares of active, inactive and inconclusive entries below differ from those in the screen. Calls follow the shape of the dose curve; as a rule, active = well fitted cell-killing curve with a large enough effect; inconclusive = small, poorly fitted or top-dose-only effect, or effect the other way, or another doubt; inactive = no such curve, though single readings can be large or run the other way. No potency is given beside an inconclusive call; the fits are too rough.
test: qHTS for induction of synthetic lethality in tumor cells producing 2HG: qHTS for the HT-1080-IDH1KD cell line; settings: HT-1080 IDH1 knockdown viability, ATP luminescence, 48 h; activity, negative = toxicity: at 46.1 µM (top of the series) unless noted;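 as to activity, negative = toxicity: 0% = DMSO wells and -100% = cell-free medium wells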
Procedure, shortened: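 Cytotoxicity counter-line: IDH1KD HT-1080, 48 h, CellTiter-Glo. Curves classed by r2, magnitude and activity.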
Potency is read from the fitted curve at half-maximal effect; tags tell the direction and shape of the fitted curve.

Structure (SMILES) | Potency | activity, negative = toxicity
O=C(NNC1=C(C(=O)C(F)(F)F)CCC1)c1cccc(Cl)c1 | active: 23.1 µM | –
Cc1ccc(OCC(=O)N/N=C/c2ccc([N+](=O)[O-])o2)cc1 | inconclusive [cytotoxic, single point] | –
CC(C)(c1ccccc1)c1ccc(OCC(O)CN2CCCC2)cc1 (stereo not given) | inconclusive [cytotoxic, single point] | –
COc1cc(/C=C2\SC(=Nc3ccc(O)cc3)NC2=O)cc(OC)c1OC | active: 2.91 µM | –
Cc1ccc(C(=O)c2c3ccc([N+](=O)[O-])cc3[n+]([O-])n2CCCC(N)=O)cc1 | – | inactive: -20.1%
CC[C@]12c3[nH]c4ccc(Cl)cc4c3CCN1C(=O)[C@@H](CC(=O)NCCC1=CCCCC1)C[C@@H]2C(=O)N1CCN(C(=O)c2ccco2)CC1 | inconclusive [cytotoxic, single point] | –
Cc1ccc(NC(=S)NCCN(C2CCCCC2)C2CCCC2)cc1 | – | inactive: 5.98%
COc1ccc(C(=O)O/N=C(\N)c2ccccn2)cc1 | active: 16.4 µM | –
c1ccc2c(N3CCCCCC3)nc(-c3ccncc3)nc2c1 | inconclusive [cytotoxic, single point] | –
C=C1c2c(Cl)ccc(O)c2C(O)=C2C(=O)[C@]3(O)C(O)=C(C(N)=O)C(=O)[C@@H](N(C)C)[C@@H]3[C@@H](O)C12 (stereo not given in full) | active: 18.4 µM | –
COc1ccc(NC(=S)N2CCN(S(C)(=O)=O)CC2)cc1OC | inconclusive [rising, single point] | –
CC(C)c1ccccc1OCC(=O)NC1CCCc2ccccc21 (stereo not given) | inconclusive [cytotoxic, single point] | –
CC(=O)Cc1nsc(NC(=O)c2ccc(-c3ccccc3Cl)o2)n1 | inconclusive [cytotoxic, single point] | –
COc1ccc(N/C(N)=N/c2nc(CSc3nnc(C)s3)cc(=O)[nH]2)cc1 | active: 2.59 µM | –
O=C(C[C@H]1CC[C@H](NC(=O)Nc2ccccc2F)[C@@H](CO)O1)NCc1ccc(-c2ccccc2)cc1 | – | inactive: -5.12%
NC(=S)N/N=C/c1ccc(Br)o1 | – | inactive: 0.503%
Cc1c(C(=O)Nc2nc3ccccc3[nH]2)cccc1[N+](=O)[O-] | – | inactive: 1.05%
C=CCn1c(=NC(=O)c2cc(Cl)sc2Cl)sc2cc(S(N)(=O)=O)ccc21 | inconclusive [cytotoxic, single point] | –
O=C(/C(=C/c1cccnc1)n1ccnc1)c1ccc(Cl)cc1Cl | – | inactive: -7.99%
O=C(CCl)Nc1cccc(CP(=O)(c2ccccc2)c2ccccc2)c1 | active: 5.17 µM | –
COc1ccc(Nc2cc(C)nc(NCc3ccccc3)n2)cc1 | active: 20.6 µM | –
CC(C)(C)c1ccc(-c2noc(CCC(=O)Nc3cccnc3)n2)cc1 | inconclusive [cytotoxic, partial curve] | –
COc1cc(CNC(=O)c2nc(Cn3nc(C)c(Br)c3C)no2)cc(OC)c1 | – | inactive: -20.2%
O=C(CSc1nc2ccccc2o1)Nc1nc2c(s1)CCCC2 | inconclusive [cytotoxic, single point] | –

Structure (SMILES) | Potency | activity, negative = toxicity
CC1CCN(CCc2nc3cc(NC(=O)NC4CCCCC4)ccc3n2C)CC1 | inconclusive [cytotoxic, single point] | –
CC(O)(c1cccnc1)c1nc(-c2ccc3ccccc3c2)cs1 (stereo not given) | inconclusive [cytotoxic, single point] | –
Cc1cc(NC(=O)Nc2ccc(F)cc2F)n(C)n1 | inconclusive [cytotoxic, full curve] | –
CCOC(=O)c1c(NC(=O)/C=C/C(=O)O)sc(C)c1-c1ccc(F)cc1 | inconclusive [cytotoxic, single point] | –
COc1cc2c(c(Br)c1N)-c1cc(Br)c(N)cc1C2=O | inconclusive [cytotoxic, partial curve] | –
CC(=O)Oc1ccc(Cl)cc1/C=C/c1ccc2ccccc2n1 | inconclusive [cytotoxic, partial curve] | –
CCC(NC(=O)CCl)c1ccc(C)cc1 (stereo not given) | inconclusive [cytotoxic, partial curve] | –
COc1ccc(OCC(=O)Nc2cccc(S(=O)(=O)N(C)c3ccccc3)c2)c([N+](=O)[O-])c1 | – | inactive: -6.74%
Cn1cc([C@@H]2C[C@H]3CN(Cc4cccc(Cl)c4)C(=O)[C@]34CCCN24)c2ccccc21 | inconclusive [cytotoxic, single point] | –
N#Cc1c(N)nc(SCC(=O)C23CC4CC(CC(C4)C2)C3)c(C#N)c1-c1ccc(Cl)cc1 | – | inactive: -9.06%
O=[N+]([O-])c1ccc(COc2ccc(-c3[nH]ncc3-c3ccccc3)c(O)c2)cc1 | inconclusive [cytotoxic, single point] | –
CCN1CCCC1CNc1ncnc2c1[nH]c1ccc(F)cc12 (stereo not given) | inconclusive [cytotoxic, single point] | –
O=C1C=C(N(CCO)Cc2ccccc2)c2ccccc2C1=O | active: 14.6 µM | –
Oc1c(Cl)cc(Cl)cc1CNc1nc2ccccc2[nH]1 | inconclusive [cytotoxic, single point] | –
O=C(Nc1ccc(Cl)c(Cl)c1)Nc1ccc(Br)cc1F | active: 16.4 µM | –
CC(C)CCNC(=O)CCn1nc(-c2ccc(Cl)cc2)ccc1=O | – | inactive: 13.8%
CN(Cc1ccccc1F)C(=O)c1ccc(NC(=O)CC2SC(N3CCCCC3)=NC2=O)cc1 (stereo not given) | – | inactive: -3.32%
O=C(Cc1ccccc1)N/N=C\c1ccc(Br)o1 | – | inactive: 29.5%
O=C(CN1CCCc2ccccc21)N/N=C/c1c(O)ccc2ccccc12 | inconclusive [cytotoxic, partial curve] | –
Cc1ccc(SCc2nc3ccccc3n2CC(=O)Nc2ccc(Cl)cc2)cc1 | inconclusive [cytotoxic, single point] | –
CC(=O)Nc1ccc(NC(=O)C(C)OC(=O)c2ccc(S(=O)(=O)N3CCCCC3)cc2)cc1 (stereo not given) | inconclusive [cytotoxic, single point] | –
Cc1cccc(C)c1NC(=O)C(Cl)C(=O)c1ccccc1 (stereo not given) | inconclusive [cytotoxic, single point] | –
O=C(COC(=O)c1ccc(NS(=O)(=O)c2cccs2)cc1)NCc1ccco1 | active: 8.2 µM | –
Cc1[nH]nc2c1C(c1cc(Br)cs1)C(C#N)=C(N)O2 (stereo not given) | inconclusive [cytotoxic, partial curve] | –

Structure (SMILES) | Potency | activity, negative = toxicity
CC1(C)C(O)=C(c2nc3ccccc3[nH]2)C(=N)N1c1ccccc1 | inconclusive [cytotoxic, single point] | –
N#Cc1ccc(CN2CCN(CC(=O)NCCc3ccc(Cl)cc3Cl)CC2)cc1 | inconclusive [cytotoxic, partial curve] | –
COc1ccc(CC(=O)NCc2ccc(-n3cccc3)cc2)cc1OC | active: 1.84 µM | –
Cc1cc(NC(=O)C2CCN(S(=O)(=O)Cc3ccccc3)CC2)ccc1-n1cnnn1 | inconclusive [cytotoxic, partial curve] | –
C[C@H]1CN([C@@H](C)CO)C(=O)Cc2cc(NC(=O)Nc3ccccc3)ccc2O[C@H]1CN(C)Cc1ccccc1 | inconclusive [cytotoxic, full curve, poor fit] | –
Cc1noc(/C=C/c2cccnc2)c1[N+](=O)[O-] | inconclusive [cytotoxic, single point] | –
Cc1ccc(NC(=O)Cc2ccc(Cl)cc2)cc1S(=O)(=O)N1CCCCCC1 | inconclusive [cytotoxic, single point] | –
O=C(NC(c1ccc(Cl)cc1)c1cnccn1)C1CCN(CCCOc2ccccc2)CC1 (stereo not given) | inconclusive [cytotoxic, single point] | –
C=CCNc1nc2cc(-c3ccccc3C)sc2c(=O)n1C | active: 9.2 µM | –
O=C(c1ccccc1)N1CCN(C(=O)c2ccccc2)c2ccccc21 | inconclusive [cytotoxic, full curve] | –
COc1ccccc1N1CCN(CC(=O)Nc2c(C)n(C)n(-c3ccccc3)c2=O)CC1 | – | inactive: 13.5%
COc1cccc(NC(=O)c2oc3ccccc3c2NC(=O)C(C)(C)C)c1 | inconclusive [cytotoxic, single point] | –
CN(CCc1ccccc1)C(=O)c1ccc(NC(=O)Cc2ccc(NC(=O)C3CCCN(C(=O)CCc4ccccc4)C3)cc2)cc1 (stereo not given) | inconclusive [cytotoxic, single point] | –
CC(=O)NNC(=O)CC(=O)Nc1nc(C23CC4CC(CC(C4)C2)C3)cs1 | inconclusive [cytotoxic, partial curve] | –
CCN1CCS/C1=C\C=C\C1=[N+](CC)CCS1 | active: 5.17 µM | –
CCN(c1ccccc1C)S(=O)(=O)c1cc2c3c(c1)CCC(=O)N3CCC2 | – | inactive: 3.02%
CCN(CC)CCOc1ccc(/C(=C(\Cl)c2ccccc2)c2ccccc2)cc1 | active: 14.6 µM | –
Cc1ccccc1C(=O)N/N=C/c1ccc([N+](=O)[O-])s1 | active: 8.91 µM | –
CCCn1nc(C(=O)Nc2ccc3nc(N4CCOCC4)sc3c2)ccc1=O | inconclusive [cytotoxic, single point] | –
CC(C)C1C(=O)N(Cc2cn(CCC3OCCO3)nn2)CCS(=O)(=O)N1Cc1ccc(-c2ccc(F)cc2Cl)cc1 (stereo not given) | inconclusive [cytotoxic, single point] | –
CCC1(O)C(=O)OCc2c1cc1n(c2=O)Cc2cc3c(N)cccc3nc2-1 (stereo not given) | active: 0.651 µM | –
CN(C)S(=O)(=O)Oc1cccc(C(=O)Nc2ccc([N+](=O)[O-])cc2)c1 | – | inconclusive: -2.89% [cytotoxic]

Source: PubChem BioAssay AID686971 (National Center for Advancing Translational Sciences (NCATS), 2013)
